These results are taken from ChEMBL document CHEMBL5113494, “Novel difluoromethyl-containing 1-((4-methoxy-3-(piperazin-1-yl)phenyl)sulfonyl)-1H-indole scaffold as potent 5-HT6R antagonists: Design, synthesis, biological evaluation, and early in vivo cognition-enhancing studies” (Bioorg Med Chem, 2022).

What is called logP is a log measure of how a compound divides between an organic and an aqueous phase. A high value points to a more lipophilic compound. By pKa is commonly meant the negative logarithm of the acid dissociation constant. Lower therefore signals a stronger acid or weaker base. The Ki is a dissociation constant, usually derived from enzyme kinetics or from competition with a known ligand. Lower therefore signals a stronger hold on the target. Usually amount remaining stands for what is left of the initial amount, in per cent. Lower therefore signals more turnover. As usually defined, the bioavailability is dose-corrected exposure relative to a reference, in per cent. Read a high bioavailability as much systemic uptake. The IC50 is the concentration at which inhibition is half-maximal. Read a high IC50 as weaker potency in that assay. What is called AUC(0-t) is exposure summed from dosing to a finite time, without extrapolation to infinity. Higher therefore signals high exposure. What is called clearance is a measure of how efficiently the substance is removed, as volume per time. Higher therefore signals a high capacity for elimination. By Cmax is commonly meant the maximum level reached in the sampled fluid or tissue. A word on the Vd: it is the apparent volume that relates the amount in the body to the concentration in plasma or blood. Read a low Vd as confinement near the circulation. By half-life is commonly meant the time in which the quantity being followed falls by half.

The nature of data set [1]: physchem. The conditions noted are these: octanol/water.
Data set [2] is described as follows: physchem.
Data set [3] addresses 5-hydroxytryptamine receptor 6 (Homo sapiens, UniProt P50406).
Data set [4] is described as follows: in vitro. As to conditions: human, microsomes.
Data set [5] can be described thus: in vitro. As to conditions: mouse, microsomes.
The nature of data set [6]: in vitro. As to conditions: rat, microsomes.
Data set [7] in a line: in vivo. The conditions noted are these: Sprague-Dawley, rat, po, 5 mg/kg.
Data set [8] has as its target Cytochrome P450 2D6 (Homo sapiens, UniProt P10635).
A short description of data set [9]: in vivo. The conditions noted are these: Sprague-Dawley, rat, iv, 2 mg/kg.
Data set [10] can be described thus: in vitro. As to conditions: human, microsomes. The source holds these as a separate data set.
Data set [11] deals with Cytochrome P450 2C19 (Homo sapiens, UniProt P33261).
Cytochrome P450 2C19, sequence (P33261 whole entry): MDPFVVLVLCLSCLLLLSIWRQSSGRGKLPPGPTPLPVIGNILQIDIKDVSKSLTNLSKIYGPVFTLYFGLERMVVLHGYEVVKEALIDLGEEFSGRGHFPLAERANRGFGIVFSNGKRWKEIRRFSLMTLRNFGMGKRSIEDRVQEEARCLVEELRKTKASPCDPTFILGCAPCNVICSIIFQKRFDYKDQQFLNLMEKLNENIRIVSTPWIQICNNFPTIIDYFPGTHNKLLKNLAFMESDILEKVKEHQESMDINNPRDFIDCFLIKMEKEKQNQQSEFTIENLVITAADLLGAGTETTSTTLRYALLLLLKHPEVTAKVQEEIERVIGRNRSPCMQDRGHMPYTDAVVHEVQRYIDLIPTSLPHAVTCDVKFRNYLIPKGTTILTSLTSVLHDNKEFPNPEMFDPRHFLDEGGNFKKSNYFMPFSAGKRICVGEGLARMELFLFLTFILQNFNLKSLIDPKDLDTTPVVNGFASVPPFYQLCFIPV
Data set [12] deals with T1, Cytochrome P450 1A2 (Homo sapiens, UniProt P05177).
T1 sequence (P05177 whole entry): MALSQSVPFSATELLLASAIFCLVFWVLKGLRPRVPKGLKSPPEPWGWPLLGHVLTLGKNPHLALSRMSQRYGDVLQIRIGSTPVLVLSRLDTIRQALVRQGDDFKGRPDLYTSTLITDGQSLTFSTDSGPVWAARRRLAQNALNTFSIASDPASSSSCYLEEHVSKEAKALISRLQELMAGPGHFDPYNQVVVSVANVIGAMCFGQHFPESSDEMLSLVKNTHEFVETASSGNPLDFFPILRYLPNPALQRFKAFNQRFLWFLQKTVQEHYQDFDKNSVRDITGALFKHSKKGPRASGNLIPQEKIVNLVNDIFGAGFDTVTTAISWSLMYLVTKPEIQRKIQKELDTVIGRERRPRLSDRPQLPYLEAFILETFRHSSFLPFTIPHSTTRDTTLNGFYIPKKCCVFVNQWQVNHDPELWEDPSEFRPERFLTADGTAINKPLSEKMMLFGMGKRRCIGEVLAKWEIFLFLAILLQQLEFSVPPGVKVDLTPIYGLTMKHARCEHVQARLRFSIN

Data set [13] is described as follows: in vitro. The conditions noted are these: mouse, microsomes. The source holds these as a separate data set.
Data set [14] is described as follows: in vitro. The conditions noted are these: rhesus monkey, microsomes.
The nature of data set [15]: in vitro. The conditions noted are these: human, microsomes. The source holds these as a separate data set.
Data set [16] can be described thus: in vitro. The conditions noted are these: rhesus monkey, microsomes. The source holds these as a separate data set.
Data set [17] in a line: in vivo. The conditions noted are these: Sprague-Dawley, rat, iv, 2 mg/kg. This is another data set of the same source.
Data set [18] can be described thus: in vitro. As to conditions: rat, microsomes. The source holds these as a separate data set.
Data set [19] is described as follows: in vivo. The conditions noted are these: Sprague-Dawley, rat, po, 5 mg/kg. This is another data set of the same source.
Data set [20] in a line: in vivo. The conditions noted are these: Sprague-Dawley, rat, po, 5 mg/kg. The source holds these as a separate data set.
Data set [21] in a line: in vitro. The conditions noted are these: rat, microsomes. The source holds these as a separate data set.
Data set [22] can be described thus: in vivo. The conditions noted are these: Sprague-Dawley, rat, iv, 2 mg/kg. This is another data set of the same source.
Data set [23] can be described thus: in vitro. The conditions noted are these: mouse, microsomes. This is another data set of the same source.
Data set [24] in a line: in vivo. The conditions noted are these: Sprague-Dawley, rat, iv, 2 mg/kg. The source holds these as a separate data set.
The target of data set [25] is Cytochrome P450 3A4 (Homo sapiens, UniProt P08684).
Cytochrome P450 3A4, sequence (P08684 whole entry): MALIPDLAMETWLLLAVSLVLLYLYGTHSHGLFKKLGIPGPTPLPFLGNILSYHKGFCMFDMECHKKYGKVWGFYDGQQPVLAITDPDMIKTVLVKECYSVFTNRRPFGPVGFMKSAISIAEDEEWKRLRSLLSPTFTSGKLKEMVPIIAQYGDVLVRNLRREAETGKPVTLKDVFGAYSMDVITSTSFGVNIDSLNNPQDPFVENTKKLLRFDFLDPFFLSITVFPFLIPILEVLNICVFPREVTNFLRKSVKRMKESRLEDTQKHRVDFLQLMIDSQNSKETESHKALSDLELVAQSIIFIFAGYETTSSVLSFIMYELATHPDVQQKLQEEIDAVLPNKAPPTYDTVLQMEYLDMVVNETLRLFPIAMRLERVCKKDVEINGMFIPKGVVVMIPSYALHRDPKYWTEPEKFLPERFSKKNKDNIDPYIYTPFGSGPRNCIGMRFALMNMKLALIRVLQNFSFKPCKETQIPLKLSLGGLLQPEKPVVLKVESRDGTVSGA
Data set [26] is described as follows: in vitro. As to conditions: rhesus monkey, microsomes. The source holds these as a separate data set.
A short description of data set [27]: in vivo. The conditions noted are these: Sprague-Dawley, rat, po, 5 mg/kg. This is another data set of the same source.
The conditions of data set [28]: Sprague-Dawley, rat, in vivo, iv, 2 mg/kg, 24 h.

5-hydroxytryptamine receptor 6, sequence (P50406 whole entry): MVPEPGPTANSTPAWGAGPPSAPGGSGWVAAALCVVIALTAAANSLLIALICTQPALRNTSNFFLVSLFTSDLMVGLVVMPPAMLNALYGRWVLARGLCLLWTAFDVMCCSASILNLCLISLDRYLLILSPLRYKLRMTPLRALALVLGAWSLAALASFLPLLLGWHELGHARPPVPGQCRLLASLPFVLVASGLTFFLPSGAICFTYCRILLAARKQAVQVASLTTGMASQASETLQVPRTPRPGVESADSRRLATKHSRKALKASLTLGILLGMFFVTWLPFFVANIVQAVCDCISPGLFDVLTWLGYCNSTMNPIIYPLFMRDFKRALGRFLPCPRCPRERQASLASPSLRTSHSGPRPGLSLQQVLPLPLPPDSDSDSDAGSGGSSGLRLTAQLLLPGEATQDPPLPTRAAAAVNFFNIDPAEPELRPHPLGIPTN
Cytochrome P450 2D6, sequence (P10635 whole entry): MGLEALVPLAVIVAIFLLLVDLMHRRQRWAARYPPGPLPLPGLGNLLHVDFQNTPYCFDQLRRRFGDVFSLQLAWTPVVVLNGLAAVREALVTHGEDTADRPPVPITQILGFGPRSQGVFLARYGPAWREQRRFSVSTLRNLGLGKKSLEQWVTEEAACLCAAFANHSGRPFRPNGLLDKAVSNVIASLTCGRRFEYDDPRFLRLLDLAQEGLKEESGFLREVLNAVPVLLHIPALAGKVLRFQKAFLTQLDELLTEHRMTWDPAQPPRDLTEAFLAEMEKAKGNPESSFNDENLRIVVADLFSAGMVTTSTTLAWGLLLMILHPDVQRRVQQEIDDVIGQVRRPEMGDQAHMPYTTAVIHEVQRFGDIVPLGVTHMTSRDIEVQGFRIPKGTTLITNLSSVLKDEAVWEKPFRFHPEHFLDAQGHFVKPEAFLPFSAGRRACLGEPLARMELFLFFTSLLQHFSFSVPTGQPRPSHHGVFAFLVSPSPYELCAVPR

In data set [1], `COc1ccc(S(=O)(=O)n2cc(C)c3cc(Br)ccc32)cc1N1CCNCC1` displayed a logP of 3.85.
With `COc1ccc(S(=O)(=O)n2cc(C(F)F)c3ccc(Br)cc32)cc1N1CCNCC1`, the logP in [1] was 3.61. The pKa in data set [2] stood at 8.48.
For `COc1cc(NS(=O)(=O)c2sc3cc(Cl)ccc3c2C)ccc1N1CCNCC1`, in [3], the affinity corresponds to a Ki of 0.0013 µM.
In turn, `COc1ccc(S(=O)(=O)n2cc(C)c3cc(Cl)ccc32)cc1N1CCNCC1` yielded a logP in [1] of 4.13.
`COc1ccc(S(=O)(=O)n2cc(C(F)F)c3ccc(Cl)cc32)cc1N1CCNCC1`: the share remaining at […], 1 µM in [4] worked out at 91.3%; in [5], 83.5%; in data set [6] it was 82.2%; in [26], 60.4%. This molecule also showed a bioavailability at 24 h in data set [7] of 60.9%. Moreover, the IC50 in data set [8] is more than 10 µM; in data set [11] it was more than 10 µM; in [12] it was more than 10 µM; in data set [25], 4.02 µM. The area under the curve AUC(0-t) at 24 h in data set [9] worked out at 327 ng·h/mL; in [19] it was 497 ng·h/mL. In addition, the share remaining at 1 h, 1 µM in data set [10] worked out at 71.5%; in [14] it was 11.4%; in data set [18], 46.6%; in data set [23] it was 53.9%. The amount remaining at 0.5 h, 1 µM came to 72% in [13], 79.9% in [15], 34.8% in [16] and 66.2% in data set [21]. The clearance at 24 h in [17] was determined as 99 mL/min/kg. For the same molecule, in data set [1], the logP is 3.5. The values for the highest concentration (Cmax) at 24 h in data set [20] and in [24] were 42 ng/mL and 67 ng/mL, respectively. In addition, the pKa in data set [2] was found to be 8.57. Besides, in data set [22], the Vd at 24 h came to 37.9 L/kg.
`COc1ccc(S(=O)(=O)n2ccc3ccc(Cl)cc32)cc1N1CCNCC1`: the bioavailability at 24 h in data set [7] was 6.31%. The molecule also showed an AUC(0-t) at 24 h in [19] of 38 ng·h/mL. In data set [1], this molecule returned a lipophilicity (logP) of 3.64. Also, the Cmax at 24 h was determined as 9 ng/mL in data set [20] and 97 ng/mL in [24]. The molecule further had a half-life at 24 h in [27] of 3.43 h. The pKa in [2] was determined as 8.79. The AUCt in [28] worked out at 252 ng·h/mL.
`COc1ccc(S(=O)(=O)n2ccc3ccc(F)cc32)cc1N1CCNCC1` returned a log partition coefficient (logP) in data set [1] of 3.1. Besides, the pKa in data set [2] was determined as 8.82.
Turning to `COc1ccc(S(=O)(=O)n2cc(C(F)F)c3cc(Br)ccc32)cc1N1CCNCC1`, the lipophilicity (logP) in data set [1] turned out to be 3.56. Further, in data set [2], the pKa was determined as 8.59.
